{"source": "the supplement of paper PMC8728848", "assay_in_all_cases": "glycan array binding signal (z-score within array); higher = stronger binding", "conditions_in_all_cases": "glycan notation: IUPAC condensed, linker removed", "key": {"[1]": {"tested_on": "Fuc(a1-2)Gal(b1-4)[Fuc(a1-3)]GalNAc(b1-3)Gal(b1-4)[Fuc(a1-3)]GlcNAc(b1-3)Gal(b1-4)[Fuc(a1-3)]GalNAc", "summary_of_the_method": "(§1)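 Glycan array data came from 3228 arrays in the Consortium for Functional Glycomics database, and only arrays with an available protein sequence were kept. Glycan names were put into IUPAC-condensed notation, and columns mapping to the same glycan were averaged. The binding signal is a within-array Z-score, averaged across arrays of one protein sequence run at different concentrations or buffers and across linkers. A negative Z-score can be read as non-binding.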"}, "[2]": {"tested_on": "Fuc(a1-2)Gal(b1-4)[Fuc(a1-3)]GlcNAc", "summary_of_the_method": "as §1"}, "[3]": {"tested_on": "Fuc(a1-2)Gal(b1-4)[Fuc(a1-3)]GalNAc(b1-3)Gal(b1-4)[Fuc(a1-3)]GlcNAc", "summary_of_the_method": "as §1"}, "Fuc(a1-2)Gal": {"tested_on": "Fuc(a1-2)Gal", "summary_of_the_method": "as §1"}, "[4]": {"tested_on": "Fuc(a1-2)Gal(b1-4)[Fuc(a1-3)]GlcNAc(b1-3)Gal(b1-4)[Fuc(a1-3)]GlcNAc(b1-3)Gal(b1-4)[Fuc(a1-3)]GlcNAc", "summary_of_the_method": "as §1"}, "[5]": {"tested_on": "Fuc(a1-2)Gal(b1-4)[Fuc(a1-3)]GlcNAc(b1-3)Gal(b1-4)[Fuc(a1-3)]GlcNAc", "summary_of_the_method": "as §1"}, "[6]": {"tested_on": "Fuc(a1-2)Gal6S(b1-3)GlcNAc", "summary_of_the_method": "as §1"}, "[7]": {"tested_on": "Fuc(a1-2)[Gal(a1-3)]Gal(b1-4)GlcNAc(b1-2)Man(a1-3)[Fuc(a1-2)[Gal(a1-3)]Gal(b1-4)GlcNAc(b1-2)Man(a1-6)]Man(b1-4)GlcNAc(b1-4)[Fuc(a1-6)]GlcNAc", "summary_of_the_method": "as §1"}, "[8]": {"tested_on": "Fuc(a1-2)Gal(b1-4)[Fuc(a1-3)]GlcNAc(b1-3)GalNAc", "summary_of_the_method": "as §1"}, "[9]": {"tested_on": "Fuc(a1-2)Gal6S(b1-3)GlcNAc6S", "summary_of_the_method": "as §1"}, "[10]": {"tested_on": "Fuc(a1-2)[Gal(a1-3)]Gal(b1-3)GlcNAc(b1-3)GalNAc", "summary_of_the_method": "as §1"}, "[11]": {"tested_on": "Fuc(a1-2)[Gal(a1-3)]Gal(b1-3)GlcNAc(b1-2)Man(a1-3)[Fuc(a1-2)[Gal(a1-3)]Gal(b1-3)GlcNAc(b1-2)Man(a1-6)]Man(b1-4)GlcNAc(b1-4)GlcNAc", "summary_of_the_method": "as §1"}, "[12]": {"tested_on": "Fuc(a1-2)[Gal(a1-3)]Gal(b1-3)GlcNAc(b1-6)GalNAc", "summary_of_the_method": "as §1"}, "[13]": {"tested_on": "Fuc(a1-2)Gal6S(b1-4)GlcNAc", "summary_of_the_method": "as §1"}, "Fuc(a1-2)GlcNAc": {"tested_on": "Fuc(a1-2)GlcNAc", "summary_of_the_method": "as §1"}, "Fuc(a1-2)Gal6S(b1-4)Glc": {"tested_on": "Fuc(a1-2)Gal6S(b1-4)Glc", "summary_of_the_method": "as §1"}, "[14]": {"tested_on": "Fuc(a1-2)[Gal(a1-3)]Gal(b1-4)GlcNAc(b1-2)Man(a1-3)[Fuc(a1-2)[Gal(a1-3)]Gal(b1-4)GlcNAc(b1-2)Man(a1-6)]Man(b1-4)GlcNAc(b1-4)GlcNAc", "summary_of_the_method": "as §1"}, "[15]": {"tested_on": "Fuc(a1-2)[Gal(a1-3)]Gal(b1-4)GlcNAc(b1-3)GalNAc", "summary_of_the_method": "as §1"}}, "note": "Only a selection was taken, and the strongest signals are over-represented in it overall."}
{"substance": "Serum Amyloid P component (Homo sapiens) (chain not printed)", "values": [{"measurement": "glycan array binding signal (z-score)", "setting": "[1]", "result": -0.612}]}
{"substance": "L-Ficolin (Homo sapiens) (chain not printed)", "values": [{"measurement": "glycan array binding signal (z-score)", "setting": "[1]", "result": -0.716}, {"measurement": "glycan array binding signal (z-score)", "setting": "[2]", "result": -0.538}]}
{"substance": "Angiogenin (Homo sapiens) (chain not printed)", "values": [{"measurement": "glycan array binding signal (z-score)", "setting": "[3]", "result": -1.06}, {"measurement": "glycan array binding signal (z-score)", "setting": "Fuc(a1-2)Gal", "result": -0.271}]}
{"substance": "Siglec-2 (Homo sapiens) (chain not printed)", "values": [{"measurement": "glycan array binding signal (z-score)", "setting": "[4]", "result": -0.216}]}
{"substance": "Meso764 (Homo sapiens) (chain not printed)", "values": [{"measurement": "glycan array binding signal (z-score)", "setting": "[5]", "result": 0.068}, {"measurement": "glycan array binding signal (z-score)", "setting": "[6]", "result": -0.318}, {"measurement": "glycan array binding signal (z-score)", "setting": "[7]", "result": 0.562}]}
{"substance": "NCAM1 (Homo sapiens) (chain not printed)", "values": [{"measurement": "glycan array binding signal (z-score)", "setting": "[8]", "result": 8.58}, {"measurement": "glycan array binding signal (z-score)", "setting": "[7]", "result": -0.273}]}
{"substance": "FGF2 (chain not printed)", "values": [{"measurement": "glycan array binding signal (z-score)", "setting": "[8]", "result": 2.44}, {"measurement": "glycan array binding signal (z-score)", "setting": "[2]", "result": -0.305}, {"measurement": "glycan array binding signal (z-score)", "setting": "[9]", "result": 2.17}, {"measurement": "glycan array binding signal (z-score)", "setting": "[10]", "result": 0.31}]}
{"substance": "Thrombomodulin Extracellular (Homo sapiens) (chain not printed)", "values": [{"measurement": "glycan array binding signal (z-score)", "setting": "[6]", "result": -0.049}, {"measurement": "glycan array binding signal (z-score)", "setting": "[11]", "result": 0.031}, {"measurement": "glycan array binding signal (z-score)", "setting": "[12]", "result": -0.274}]}
{"substance": "CLEC-2 (Homo sapiens) (chain not printed)", "values": [{"measurement": "glycan array binding signal (z-score)", "setting": "[13]", "result": 0.215}]}
{"substance": "H-Ficolin (Homo sapiens) (chain not printed)", "values": [{"measurement": "glycan array binding signal (z-score)", "setting": "[13]", "result": 0.103}, {"measurement": "glycan array binding signal (z-score)", "setting": "Fuc(a1-2)GlcNAc", "result": 2.76}]}
{"substance": "Gal 8 long (Homo sapiens) (chain not printed)", "values": [{"measurement": "glycan array binding signal (z-score)", "setting": "Fuc(a1-2)Gal6S(b1-4)Glc", "result": -0.313}]}
{"substance": "VWF (Homo sapiens) (chain not printed)", "values": [{"measurement": "glycan array binding signal (z-score)", "setting": "Fuc(a1-2)Gal", "result": -0.065}]}
{"substance": "Gal 3 (Homo sapiens) (chain not printed)", "values": [{"measurement": "glycan array binding signal (z-score)", "setting": "[11]", "result": -0.148}]}
{"substance": "MBP (Homo sapiens) (chain not printed)", "values": [{"measurement": "glycan array binding signal (z-score)", "setting": "[14]", "result": -0.019}, {"measurement": "glycan array binding signal (z-score)", "setting": "[15]", "result": -0.436}]}
